Results reported in PubChem BioAssay AID504466 (National Center for Advancing Translational Sciences (NCATS), 2011).
Hit rate of the full screen: of about 330,000 compounds, about 4,200 (1.3%) were called active. Inconclusive results, whose numbers are uncertain, are shown with a selection of clear calls. Calls come from the whole dose curve; as a rule, active = well fitted activation curve with a large enough effect; inconclusive = small, poorly fitted or top-dose-only effect; inactive = no such curve, though single readings can be large or run the other way. Potencies beside an inconclusive call are fits to weak or partial responses and may not hold up.

assay: qHTS screen for small molecules that induce genotoxicity in human embryonic kidney (HEK293T) cells expressing luciferase-tagged ELG1; conditions: HEK293T ELG1-luciferase reporter, luminescence, 16 h; series mostly up to 46 µM; activity change, positive = activation: at the top concentration; note: nearly all actives have a fitted effect of over 60% in size; for activity change, positive = activation: % of control where 0% means no effect
Summary of the method: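 Genotoxicity was scored as increased ELG1-luciferase reporter signal, measured by ONE-Glo luminescence (30 min, room temperature). Compound or vehicle exposure of the HEK293T reporter cells lasted 16 hr at 37°C.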
Potency is the fitted concentration of half-maximal effect; tags give direction and shape of the fitted curve.

| SMILES | Potency | activity change, positive = activation |
| --- | --- | --- |
| Cc1ccc(C(=O)CCC2CCCC2=O)cc1 (configuration not stated) | inconclusive: 20.6 µM [activator, partial curve] |  |
| CN(C)S(=O)(=O)c1ccc(Cl)c(C(=O)OCC(=O)NC(=O)NC2CCCC2)c1 |  | inactive: -0.661% |
| CCN1CCN(C(=O)c2cc3c(s2)-c2c(C)cccc2OC3)CC1 | inconclusive: 8.2 µM [activator, partial curve] |  |
| COc1ccc(CN2CCN(CC(=O)Nc3ccccc3C(=O)NC3CC3)CC2)cc1F |  | inactive: -5.06% |
| COc1ccc(/C=C2\SC(=S)N(C(C)C(=O)NC3C=CS(=O)(=O)C3)C2=O)cc1 (configuration not stated) |  | inactive: 0.82% |
| O=C(CN1C(=O)/C(=C/c2ccccc2)SC1=S)NNC(=O)c1ccccc1O |  | inactive: -1.25% |
| COCCn1c(C)cc(C(=O)COC(=O)c2ccc[nH]c2=O)c1C | inconclusive: 4.61 µM [activator, partial curve] |  |
| c1ccc(OCCOc2ncnc3sccc23)cc1 | active: 16.4 µM |  |
| CC(C)c1nnc(NC(=O)c2ccc3c(c2)OCO3)s1 | inconclusive: 0.58 µM [activator, partial curve] |  |
| Cc1ccc(NC(=O)Nc2cccnc2)cc1Cl | inconclusive: 20.6 µM [activator, partial curve, poor fit] |  |
| CCCc1cc(C(=O)Nc2cc(C)ccc2O)no1 | active: 14.6 µM |  |
| Cc1c(C(=O)N2CCc3ccccc3C2)oc2ccccc12 |  | inactive: 14.7% |
| CCOC(=O)C1CCN(C(=O)c2cc3c(s2)-c2ccccc2OC3)CC1 | inconclusive: 23.1 µM [activator, partial curve, poor fit] |  |
| CN(C)/C=C/C(=O)c1ccc(Cl)s1 | inconclusive: 29.1 µM [activator, partial curve, poor fit] |  |
| CCOC(=O)c1nn(-c2ccc3c(c2)OCO3)cc1O | inconclusive: 7.31 µM [activator, partial curve] |  |
| Cc1sc(NC(=S)NC(=O)c2ccco2)c(C#N)c1C | inconclusive: 13 µM [activator, partial curve, poor fit] |  |
| Cc1ccc(NC(=O)Cn2nc(C)c(S(=O)(=O)N(C)C)c2C)cc1C |  | inactive: -4.98% |
| O=c1nc2c(-c3ccccc3F)n[nH]n2c2ccccc12 | inconclusive: 20.6 µM [activator, partial curve] |  |
| CCc1cc2c(=O)c(-c3nc(C)cs3)coc2cc1O | inconclusive: 10.3 µM [activator, partial curve, poor fit] |  |

| SMILES | Potency | activity change, positive = activation |
| --- | --- | --- |
| Cc1ccc(C(=O)N/N=C/c2ccoc2)cc1C | inconclusive: 10.3 µM [activator, partial curve] |  |
| Cc1ccccc1C(=O)O/N=C(\N)c1ccc([N+](=O)[O-])cc1 | inconclusive: 20.6 µM [activator, partial curve, poor fit] |  |
| O=C(/C=C/c1cccc(C(F)(F)F)c1)OCC(=O)N1CCN(c2ccccc2)CC1 |  | inactive: 0.0373% |
| O=C(N/N=C/c1cccs1)c1cc(-c2cccc3ccccc23)n[nH]1 |  | inactive: 15% |
| COC(=O)/C(=C1/Oc2ccc(C(C)(C)C)cc2S1)C(F)(F)F | inconclusive: 9.2 µM [activator, partial curve] |  |
| COC(=O)Cc1c(OC)ccn(CCc2c[nH]c3ccccc23)c1=O | inconclusive: 16.4 µM [activator, single point] |  |
| Cc1ccc(C(=O)NC2CCN(Cc3ccccc3)CC2)cc1S(=O)(=O)N1CCOCC1 | active: 18.3 µM |  |
| CCOC(=O)C1(Cc2ccccc2)CCN(Cc2cn[nH]c2-c2ccccc2)CC1 |  | inactive: -6.23% |
| COc1cc(OC)c(NC(=O)C2CCN(S(=O)(=O)c3ccc4c(c3)CC(C)N4C(C)=O)CC2)cc1Cl (configuration not stated) |  | inactive: -3.97% |
| CC(=O)Nc1ccc(S(=O)(=O)N/N=C/c2cccnc2)cc1 |  | inactive: -1.97% |
| O=C(N/N=C/c1ccc(OCC(=O)N2CCCCC2)cc1)c1ccccc1 |  | inactive: -3.04% |
| CC(C)OC(=O)CC(=O)CSc1nc2c(cc1C#N)CCC2 |  | inactive: 0.819% |
| C[C@H]1C(=O)N(C)CCN1C(=O)c1ccccc1OC1CCN(S(C)(=O)=O)CC1 |  | inactive: -0.674% |
| Cc1cccc(-c2nc(-c3ccncc3)no2)c1 | active: 9.2 µM |  |
| Cc1cc2oc(C(=O)NCc3ccc(S(N)(=O)=O)cc3)c(C)c2cc1C | inconclusive: 29.1 µM [activator, single point] |  |
| COC(=O)c1ccc(N/C=C/C(=O)c2ccccc2)cc1 | inconclusive: 5.01 µM [activator, partial curve, poor fit] |  |
| CC(C)c1cc(C(=O)Nc2cccc(Cl)c2)no1 | inconclusive: 1.64 µM [activator, full curve] |  |
| CCOC(=O)c1[nH]c(C)c(C(=O)Nc2cc(OC)ccc2OC)c1C | inconclusive: 7.31 µM [activator, partial curve, poor fit] |  |
